{
  "sequences": {"note": "Chains of the proteins cited; added tags and fusions are not shown. Lines headed by an entry give the natural chain unless they say otherwise; changes in a name come on top.", "UniProt P17383": "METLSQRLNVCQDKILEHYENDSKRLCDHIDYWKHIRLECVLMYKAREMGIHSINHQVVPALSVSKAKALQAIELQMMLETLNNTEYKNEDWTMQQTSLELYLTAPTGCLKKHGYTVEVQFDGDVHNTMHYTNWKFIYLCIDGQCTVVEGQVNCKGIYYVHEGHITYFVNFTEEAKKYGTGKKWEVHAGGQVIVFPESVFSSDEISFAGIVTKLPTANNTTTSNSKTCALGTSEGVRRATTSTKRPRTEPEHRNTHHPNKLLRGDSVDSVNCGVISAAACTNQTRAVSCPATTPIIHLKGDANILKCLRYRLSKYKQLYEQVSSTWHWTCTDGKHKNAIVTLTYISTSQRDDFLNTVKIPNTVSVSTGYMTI"},
  "source": "paper PMC7599729",
  "molecules": {"B1": {"name": "NSE3 (protein, UniProt Q96MG7 1-304)", "chain": "MLQKPRNRGRSGGQAERDRDWSHSGNPGASRAGEDARVLRDGFAEEAPSTSRGPGGSQGSQGPSPQGARRAQAAPAVGPRSQKQLELKVSELVQFLLIKDQKKIPIKRADILKHVIGDYKDIFPDLFKRAAERLQYVFGYKLVELEPKSNTYILINTLEPVEEDAEMRGDQGTPTTGLLMIVLGLIFMKGNTIKETEAWDFLRRLGVYPTKKHLIFGDPKKLITEDFVRQRYLEYRRIPHTDPVDYEFQWGPRTNLETSKMKVLKFVAKVHNQDPKDWPAQYCEALADEENRARPQPSGPAPSS"}, "B2": {"name": "FLAG-SMC6 (protein, UniProt Q96SB8 1-1091)", "chain": "MAKRKEENFSSPKNAKRPRQEELEDFDKDGDEDECKGTTLTAAEVGIIESIHLKNFMCHSMLGPFKFGSNVNFVVGNNGSGKSAVLTALIVGLGGRAVATNRGSSLKGFVKDGQNSADISITLRNRGDDAFKASVYGNSILIQQHISIDGSRSYKLKSATGSVVSTRKEELIAILDHFNIQVDNPVSVLTQEMSKQFLQSKNEGDKYKFFMKATQLEQMKEDYSYIMETKERTKEQIHQGEERLTELKRQCVEKEERFQSIAGLSTMKTNLESLKHEMAWAVVNEIEKQLNAIRDNIKIGEDRAARLDRKMEEQQVRLNEAEQKYKDIQDKLEKISEETNARAPECMALKADVVAKKRAYNEAEVLYNRSLNEYKALKKDDEQLCKRIEELKKSTDQSLEPERLERQKKISWLKERVKAFQNQENSVNQEIEQFQQAIEKDKEEHGKIKREELDVKHALSYNQRQLKELKDSKTDRLKRFGPNVPALLEAIDDAYRQGHFTYKPVGPLGACIHLRDPELALAIESCLKGLLQAYCCHNHADERVLQALMKRFYLPGTSRPPIIVSEFRNEIYDVRHRAAYHPDFPTVLTALEIDNAVVANSLIDMRGIETVLLIKNNSVARAVMQSQKPPKNCREAFTADGDQVFAGRYYSSENTRPKFLSRDVDSEISDLENEVENKTAQILNLQQHLSALEKDIKHNEELLKRCQLHYKELKMKIRKNISEIRELENIEEHQSVDIATLEDEAQENKSKMKMVEEHMEQQKENMEHLKSLKIEAENKYDAIKFKINQLSELADPLKDELNLADSEVDNQKRGKRHYEEKQKEHLDTLNKKKRELDMKEKELEEKMSQARQICPERIEVEKSASILDKEINRLRQKIQAEHASHGDREEIMRQYQEARETYLDLDSKVRTLKKFIKLLGEIMEHRFKTYQQFRRCLTLRCKLYFDNLLSQRAYCGKMNFDHKNETLSISVQPGEGNKAAFNDMRALSGGERSFSTVCFILSLWSIAESPFRCLDEFDVYMDMVNRRIAMDLILKMADSQRFRQFILLTPQSMSSLPSSKLIRILRMSDPERGQTTLPFRPVTQEEDDDQR"}, "B3": {"name": "HPV-31 HA-E1 (protein, UniProt P17382 1-629)", "chain": "MADPAGTDGEGTGCNGWFYVEAVIDRQTGDNISEDENEDSSDTGEDMVDFIDNCNVYNNQAEAETAQALFHAQEAEEHAEAVQVLKRKYVGSPLSDISSCVDYNISPRLKAICIENNSKTAKRRLFELPDSGYGNTEVETQQMVQVEEQQTTLSCNGSDGTHSERENETPTRNILQVLKTSNGKAAMLGKFKELYGVSFMELIRPFQSNKSTCTDWCVAAFGVTGTVAEGFKTLLQPYCLYCHLQSLACSWGMVMLMLVRFKCAKNRITIEKLLEKLLCISTNCMLIQPPKLRSTAAALYWYRTGMSNISDVYGETPEWIERQTVLQHSFNDTTFDLSQMVQWAYDNDVMDDSEIAYKYAQLADSDSNACAFLKSNSQAKIVKDCGTMCRHYKRAEKRQMSMGQWIKSRCDKVSDEGDWRDIVKFLRYQQIEFVSFLSALKLFLKGVPKKNCILIHGAPNTGKSYFGMSLISFLQGCIISYANSKSHFWLQPLADAKIGMLDDATTPCWHYIDNYLRNALDGNPVSIDVKHKALMQLKCPPLLITSNINAGKDDRWPYLHSRLVVFTFPNPFPFDKNGNPVYELSDKNWKSFFSRTWCRLNLHEEEDKENDGDSFSTFKCVSGQNIRTL"}, "B4": {"name": "endogenous SMC6 (protein, UniProt Q96SB8 1-1091)", "chain": "B2 chain"}},
  "key": {"FLAG-SMC6 [1]": {"target": "T1, FLAG-SMC6 (UniProt Q96SB8)", "T1 sequence": "B2 chain", "assay": "co-IP; HEK293TT cells transfected with FLAG-SMC6, full-length FLAG-E2 or truncated FLAG-E2; 48 h; NP-40 lysis buffer, benzonase; IP with rabbit anti-SMC6 or rabbit IgG"}, "HPV-31 HA-E1 (HPV-31)": {"target": "T2, HPV-31 HA-E1 (HPV-31) (UniProt P17382)", "T2 sequence": "B3 chain", "assay": "co-IP; HEK293TT cells transfected with FLAG-SMC6, HPV-31 V5-E2 and HPV-31 HA-E1; 48 h; NP-40 lysis buffer, benzonase; IP with rat anti-HPV-31 E1"}, "FLAG-SMC6 [2]": {"target": "T1, FLAG-SMC6", "assay": "co-IP; HEK293 cells transfected with FLAG-SMC6, HPV-31 V5-E2 or both; 48 h; lysis in 0.5% NP-40/150 mM NaCl/50 mM Tris-HCl pH 8/10% glycerol, benzonase; IP with M2 anti-FLAG agarose overnight at 4 °C; washes alternating 0.5 M and 150 mM salt"}, "FLAG-SMC6 [3]": {"target": "T1, FLAG-SMC6", "assay": "co-IP; HEK293TT cells transfected with FLAG-SMC6, HPV-31 FLAG-E2 and HPV-31 HA-E1 alone or in combination; 48 h; NP-40 lysis buffer, benzonase; IP with rabbit anti-SMC6 or rabbit IgG"}, "[4]": {"target": "T3, endogenous SMC6 (human (endogenous in HEK293TT)) (UniProt Q96SB8)", "T3 sequence": "B2 chain", "assay": "co-IP; HEK293TT cells transfected with FLAG-SMC6, HPV-31 FLAG-E2 and HPV-31 HA-E1 alone or in combination; 48 h; NP-40 lysis buffer, benzonase; IP with rabbit anti-SMC6 or rabbit IgG"}, "HPV-31 V5-E2 (HPV-31)": {"target": "HPV-31 V5-E2 (HPV-31) (UniProt P17383)", "assay": "co-IP; HEK293TT cells transfected with FLAG-SMC6 and HPV-31 V5-E2; 48 h; NP-40 lysis buffer, benzonase; IP with rabbit anti-V5 on protein A/G sepharose"}, "[5]": {"target": "full-length HPV-31 FLAG-E2 (HPV-31) (UniProt P17383)", "assay": "co-IP; HEK293TT cells transfected with FLAG-SMC6, HPV-31 FLAG-E2 and HPV-31 HA-E1 alone or in combination; 48 h; NP-40 lysis buffer, benzonase; IP with rabbit anti-SMC6 or rabbit IgG"}},
  "note": "Results are given in words; binding and its absence hold for the method and conditions named. In cells and extracts the contact can be indirect. Some binding calls cover weakened binding; strength is not graded here. Where a sequence is shown, tags or fusion partners need not be part of it.",
  "data": [
    {"molecule": "HPV-31 FLAG-E2^mt (residues 205-372) (from UniProt P17383 205-372) (domain or fragment)", "values": [
      {"measurement": "binding", "setting": "FLAG-SMC6 [1]", "value": "no binding"}
    ]},
    {"molecule": "HPV-31 V5-E2 (from UniProt P17383 1-372)", "values": [
      {"measurement": "binding", "setting": "HPV-31 HA-E1 (HPV-31)", "value": "binds"},
      {"measurement": "binding", "setting": "FLAG-SMC6 [2]", "value": "binds"}
    ]},
    {"molecule": "full-length HPV-31 FLAG-E2 (from UniProt P17383 1-372)", "values": [
      {"measurement": "binding", "setting": "FLAG-SMC6 [1]", "value": "binds"},
      {"measurement": "binding", "setting": "FLAG-SMC6 [3]", "value": "binds"},
      {"measurement": "binding", "setting": "[4]", "value": "binds"}
    ]},
    {"molecule": "B1", "values": [
      {"measurement": "binding", "setting": "HPV-31 HA-E1 (HPV-31)", "value": "no binding"},
      {"measurement": "binding", "setting": "HPV-31 V5-E2 (HPV-31)", "value": "no binding"},
      {"measurement": "binding", "setting": "FLAG-SMC6 [1]", "value": "binds"},
      {"measurement": "binding", "setting": "[4]", "value": "binds"},
      {"measurement": "binding", "setting": "FLAG-SMC6 [2]", "value": "binds"}
    ]},
    {"molecule": "B2", "values": [
      {"measurement": "binding", "setting": "HPV-31 HA-E1 (HPV-31)", "value": "no binding"},
      {"measurement": "binding", "setting": "HPV-31 V5-E2 (HPV-31)", "value": "binds"}
    ]},
    {"molecule": "B3", "values": [
      {"measurement": "binding", "setting": "FLAG-SMC6 [3]", "value": "no binding"},
      {"measurement": "binding", "setting": "[4]", "value": "no binding"},
      {"measurement": "binding", "setting": "[5]", "value": "binds"}
    ]},
    {"molecule": "B4", "values": [
      {"measurement": "binding", "setting": "HPV-31 HA-E1 (HPV-31)", "value": "no binding"}
    ]}
  ]
}
